Measured values taken from article PMC4336329 (PLoS ONE, 2015).
Screen size: about 310,000 compounds; about 14,000 (4.5%) showed an effect of 50% or more. Effects have a minus sign here. The list shows a part of the results.

What follows are compounds tested against human ether-à-go-go-related gene (hERG) potassium channel (human, UniProt Q12809) (assay: primary screen, population patch clamp on CHO cells stably expressing hERG).
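Also: peak tail current of the secondary pulse compared with the same well before compound.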

Sequence of human ether-à-go-go-related gene (hERG) potassium channel (Q12809 whole entry, looked up): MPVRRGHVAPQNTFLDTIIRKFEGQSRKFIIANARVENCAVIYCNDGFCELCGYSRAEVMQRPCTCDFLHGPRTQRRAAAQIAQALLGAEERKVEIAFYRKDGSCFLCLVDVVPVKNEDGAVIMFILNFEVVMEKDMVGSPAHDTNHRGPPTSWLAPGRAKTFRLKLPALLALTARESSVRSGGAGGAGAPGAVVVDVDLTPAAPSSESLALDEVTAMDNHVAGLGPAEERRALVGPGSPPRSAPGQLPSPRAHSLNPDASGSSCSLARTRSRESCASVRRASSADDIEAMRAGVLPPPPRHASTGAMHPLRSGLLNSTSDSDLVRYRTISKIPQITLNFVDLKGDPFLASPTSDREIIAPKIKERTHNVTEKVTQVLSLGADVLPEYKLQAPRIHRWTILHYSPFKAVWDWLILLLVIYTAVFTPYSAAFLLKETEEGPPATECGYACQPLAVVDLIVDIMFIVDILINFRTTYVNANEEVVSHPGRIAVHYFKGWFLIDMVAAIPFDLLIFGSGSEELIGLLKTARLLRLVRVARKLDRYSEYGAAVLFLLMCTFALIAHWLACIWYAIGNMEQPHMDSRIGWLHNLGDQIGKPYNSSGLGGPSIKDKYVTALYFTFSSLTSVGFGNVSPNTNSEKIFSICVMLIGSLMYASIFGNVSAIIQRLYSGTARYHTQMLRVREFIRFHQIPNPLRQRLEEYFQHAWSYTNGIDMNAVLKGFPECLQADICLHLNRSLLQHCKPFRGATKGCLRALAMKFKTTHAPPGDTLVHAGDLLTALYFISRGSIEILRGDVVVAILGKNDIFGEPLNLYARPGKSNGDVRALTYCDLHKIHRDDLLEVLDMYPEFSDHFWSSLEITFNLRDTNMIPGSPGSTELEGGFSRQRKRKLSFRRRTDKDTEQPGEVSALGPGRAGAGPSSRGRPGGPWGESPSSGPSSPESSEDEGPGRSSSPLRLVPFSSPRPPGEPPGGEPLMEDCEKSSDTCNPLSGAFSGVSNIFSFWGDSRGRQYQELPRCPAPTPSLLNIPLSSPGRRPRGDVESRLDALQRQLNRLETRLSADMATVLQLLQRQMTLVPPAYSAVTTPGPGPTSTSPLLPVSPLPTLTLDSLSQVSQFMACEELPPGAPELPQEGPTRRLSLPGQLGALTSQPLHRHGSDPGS

| SMILES | hERG current change (%, negative = inhibition) at 10uM |
| --- | --- |
| O=C(Nc1ccc(F)cc1F)N1CCCN(CCOc2ccccc2)CC1 | -45.2% |
| CCOC(=O)CC1Sc2ccccc2NC1=S (stereo not drawn) | -0.638% |
| Cc1c(Cl)ccc(S(=O)(=O)Nc2cccnc2)c1Cl | 13.6% |
| COC(=O)CCc1nc2cc(Cl)ccc2n(Cc2ccccc2)c1=O | -23.1% |
| CCOC(=O)N1CCN(C(=O)C2COc3ccccc3O2)CC1 (stereo not drawn) | -2.28% |
| Cc1ccc(C(=O)c2ccccc2C(=O)OCC(=O)NCC2CCCO2)cc1 (stereo not drawn) | 18.6% |
| O=C(c1ccc(C(F)(F)F)cc1)N1CCC(=O)N(C(CO)Cc2ccccc2)CC1 (stereo not drawn) | -4.21% |
| Cc1ccc(-c2n[nH]c(=S)n2/N=C/c2ccncc2)cc1 | 17.5% |
| C[C@@H]1CC[C@]2(O[C@@H](CCO)C[C@@H](O)[C@@H]2O)O1 | 23.3% |
| O=C(c1ccc2c(c1)OCO2)N1CCN(C(=O)c2ccco2)CC1 | 7.36% |
| COc1ccccc1NC(=O)C(C)NS(=O)(=O)c1ccc(F)cc1 (stereo not drawn) | -0.796% |
| CCOc1ccccc1NC(C)C(=O)Nc1cc(C(F)(F)F)ccc1N1CCOCC1 (stereo not drawn) | -6.23% |
| O=C(NCc1ccc(F)cc1)C(c1cccs1)N(C(=O)c1csnn1)C1CC1 (stereo not drawn) | -20.3% |
| O=C(Cn1cnc(S(=O)(=O)N2CCCCC2)c1)Nc1ccc(OC(F)(F)F)cc1 | 22% |
| COc1ccc(NC(=O)CCCn2cnc3ccccc3c2=O)c(OC)c1 | -26.4% |
| COc1ccc(C(=O)O)cc1S(=O)(=O)Nc1cc(Cl)ccc1N1CCOCC1 | 13% |
| CC(C)CCn1c(Sc2nc3ccccc3s2)nc2c1c(=O)[nH]c(=O)n2C | -0.292% |
| Cc1ccc(C(=O)NN2C(=O)C3C4c5ccccc5C(c5ccccc54)C3C2=O)cc1 (stereo not drawn) | -0.0938% |
| O=C(CC1COc2ccccc2O1)NC1CCCCC1 (stereo not drawn) | 5.61% |

| SMILES | hERG current change (%, negative = inhibition) at 10uM |
| --- | --- |
| COc1cc(C(C)=O)ccc1Oc1ncccn1 | 8.3% |
| Cc1cccc2nc(C(=O)Nc3cccc(C(=O)NC4CC4)c3)cn12 | 7.27% |
| O=C(NCCN1CCCCC1)Nc1ccc(Cl)cc1 | -33.7% |
| O=C(NN1CCCCC1)c1ccc(COc2ccc(Cl)cc2)cc1 | -6.27% |
| CCc1ccc(OCC(=O)N(C)C)c(Br)c1 | -7.33% |
| COc1ccc2c(c1)c(C(=O)OCCN(C)C)c(C)n2C.Cl | -1.4% |
| CCCCN1C(=S)NC[C@@H]1C(C)CC (stereo partly drawn) | 12.9% |
| Nc1c(C(=O)NCCN2CCOCC2)c2nc3ccccc3nc2n1Cc1ccccc1 | 1.38% |
| CC1CC(C)CN(S(=O)(=O)N2CCCC(C(=O)NCCCN3CCCCC3C)C2)C1 (stereo not drawn) | -9.36% |
| O=C(/C=C/c1ccc2c(c1)OCO2)Nc1c(C(=O)O)[nH]c2ccccc12 | 7.78% |
| O=C(Cn1cc2c(n1)CCCC2)Nc1ccccc1Cl | 9.62% |
| CCN1CCN(S(=O)(=O)CC2(C)C3CCC2(C)C(=O)C3Br)CC1 (stereo not drawn) | 21.7% |
| O=c1c2c(-c3ccc(Cl)cc3)csc2ncn1/N=C/c1cccc([N+](=O)[O-])c1O | 3.44% |
| COc1ccc(NC(=O)C(C)SCc2ccccc2)cc1 (stereo not drawn) | 8.06% |
| COC(=O)c1ccccc1NC(=O)c1ccccc1N(C)S(=O)(=O)c1ccccc1 | 6.83% |
| CCOC(=O)c1sc(-c2ccc(F)cc2)cc1NC(=O)Nc1ccccc1OC | -8.5% |
| Cc1oc(C(=O)O)cc1CSc1nnc(-c2ccccc2)n1C | -7.82% |
| O=C(Cc1cccs1)N1CCN(S(=O)(=O)c2ccc(Br)cc2)CC1 | -2.75% |
| Cc1cccc(Cn2c(N3CCN(c4ccccc4)CC3)nc3c2c(=O)n(C)c(=O)n3C)c1 | -36% |

| SMILES | hERG current change (%, negative = inhibition) at 10uM |
| --- | --- |
| Cc1ccc(-n2c(SC3CCOC3=O)nc3ccccc3c2=O)cc1 (stereo not drawn) | -9.48% |
| Cc1ccc(CNC(=O)CNC(=O)[C@@H]2Cc3ccccc3CN2C(=O)OC(C)(C)C)cc1 | -14.8% |
| COC(=O)N/N=C/c1ccc(-c2ccc(Cl)c(Cl)c2)o1 | 0.0538% |
| CCNCc1ccc(OCc2cccs2)c(OCC)c1 | -1.95% |
| CC(=O)Nc1ccc(NC(=O)COc2cc(O)c3c(c2)OC(C)(C)CC3=O)cc1 | -15.8% |
| Cc1nc(SCC(=O)c2cc3ccccc3oc2=O)c(C#N)c(-c2ccccc2)c1C(=O)Nc1ccccc1 | -1.93% |
| COc1ccc(OC)c(C(=O)COC(=O)C(CCSC)NC(=O)COc2ccccc2)c1 (stereo not drawn) | -26.5% |
| CCN(C(=O)COn1nnc2ccc(S(=O)(=O)N(C)C)cc21)C1CCS(=O)(=O)C1 (stereo not drawn) | 1.39% |
| CCOC(=O)c1c(-c2ccc(C)cc2)csc1NC(=S)NC(=O)c1ccccc1 | 2.84% |
| CC(C)c1cccc(O)c(=O)c1 | -1.62% |
| CCc1cccc(C)c1NC(=O)C1CCCN(S(C)(=O)=O)C1 (stereo not drawn) | 23.6% |
| CSc1cccc(NC(=O)CSc2ccc(Cl)cc2)c1 | 14.1% |
| Cc1ccccc1OCCC(=O)Nc1ccc(Cl)cc1F | -9.38% |
| Cc1nc2cc(C(F)(F)F)ccc2n1CCNc1nc(-c2ccc([N+](=O)[O-])c(Cl)c2)cs1 | -4.07% |
| Cc1ccc2nc(C)cc(C(=O)N/N=C/c3ccncc3)c2c1 | 1.94% |
| Cc1nnc(SCC(=O)Nn2cnnc2)s1 | -11.6% |
| CC(OC(=O)c1ccc2ncsc2c1)C(=O)N1CCCC1 (stereo not drawn) | -56.9% |
| COc1ccc(N(CC(=O)N/N=C/c2cccs2)S(=O)(=O)c2ccccc2)cc1 | -4.75% |
| Cn1c(=O)c2c(nc(NCc3ccc4c(c3)OCO4)n2Cc2ccccc2)n(C)c1=O | -5.22% |
